Experiment [1] addresses T1, Soluble cynomolgus macaque FcRn with cynomolgus beta2-microglobulin, HIS-tagged (cynomolgus macaque, UniProt Q8SPV9 24-297; Q6T672 21-119).
T1 construct: Synthesized by GeneArt, expressed in HEK cells; also called CynoFcRn; Cyno FcRn; not shown: HIS-tag on the C-terminal of the beta-chain
Nature of the experiment: SPR, albumin over immobilized His-FcRn, pH 5.5, 1:1 Langmuir. How it is done: (§1) SPR experiments were carried out using a Biacore 3000 instrument (GE Healthcare). Flow cells of CM5 sensor chips were coupled with soluble FcRn from one of the following species, human (shFcRn), rat (srFcRn), mouse (smFcRn), rhesus monkey (srmFcRn), dog (dFcRn) or pig (pFcRn) (˜900-2500 resonance units (RU)) using GE Healthcare amine coupling chemistry as per the manufacturer's instructions. The coupling was performed by injecting 2 or 10 μg/ml FcRn in 10 mM sodium acetate pH 5.0 (GE healthcare). Phosphate buffer (67 mM phosphate buffer, 0.15 M NaCl, 0.005% Tween 20) at pH 6.0) was used as running buffer and dilution buffer. Regeneration of the surfaces were done using injections of HBS-EP buffer (0.01 M HEPES, 0.15 M NaCl, 3 mM EDTA, 0.005% surfactant P20) at pH 7.4 (GE Healthcare). For determination of binding kinetics, serial dilutions of albumin (10-0.3 μM) were injected over immobilized receptors at a constant flow rate (50 μl/min) at 25° C. In all experiments, data were zero adjusted and the reference cell subtracted.
(§2) The SPR assay was conducted with the following variations to the assay described in the Materials and Method section:
(§3) The soluble FcRn receptors were synthesized by GeneArt and expressed in HEK cells. The soluble FcRn contained a HIS-tag on the C-terminal of the Beta-chain instead of a GST on the heavy chain and the beta-chain used was the native beta-chain of the animal (see Materials and Method section for the corresponding sequences). The soluble FcRn was purified by a HIS trap column followed by an additional purification using an IgG column. The soluble FcRn receptor was diluted to 20 μg/mL. The phosphate buffer used as running buffer in the SPR assay was at pH 5.5 instead of pH 6.0. […] 1:1 Langmuir or Steady state model was used.
A general note: SPR reads the build-up and loss of mass on a sensor chip optically.

In experiment [2] the target is T2, Soluble pig FcRn with pig beta2-microglobulin, HIS-tagged (Example 4) (pig, UniProt Q07717 21-118).
T2 construct: also called pFcRn; not shown: HIS-tag on the C-terminal of the beta-chain
T2 sequence: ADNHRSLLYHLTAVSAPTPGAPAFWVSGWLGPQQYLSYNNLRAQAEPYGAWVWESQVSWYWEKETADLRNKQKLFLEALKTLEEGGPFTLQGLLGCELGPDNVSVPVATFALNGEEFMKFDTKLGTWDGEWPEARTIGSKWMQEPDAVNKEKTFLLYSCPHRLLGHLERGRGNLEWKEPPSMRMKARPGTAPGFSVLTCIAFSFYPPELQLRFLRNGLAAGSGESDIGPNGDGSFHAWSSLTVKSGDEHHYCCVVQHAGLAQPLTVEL
T2 sequence (b2m): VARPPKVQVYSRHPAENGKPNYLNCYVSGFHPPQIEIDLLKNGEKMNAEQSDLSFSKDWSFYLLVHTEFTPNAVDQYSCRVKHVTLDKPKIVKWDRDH
The description is as above. As for the experimental part:
as §1, §2, §3

Experiment [3] deals with T3, Soluble guinea pig FcRn with guinea pig beta2-microglobulin, HIS-tagged (guinea pig, UniProt P01886 1-99).
T3 construct: Synthesized by GeneArt, expressed in HEK cells; also called gpFcRn; gpFcRN; not shown: HIS-tag on the C-terminal of the beta-chain
T3 sequence: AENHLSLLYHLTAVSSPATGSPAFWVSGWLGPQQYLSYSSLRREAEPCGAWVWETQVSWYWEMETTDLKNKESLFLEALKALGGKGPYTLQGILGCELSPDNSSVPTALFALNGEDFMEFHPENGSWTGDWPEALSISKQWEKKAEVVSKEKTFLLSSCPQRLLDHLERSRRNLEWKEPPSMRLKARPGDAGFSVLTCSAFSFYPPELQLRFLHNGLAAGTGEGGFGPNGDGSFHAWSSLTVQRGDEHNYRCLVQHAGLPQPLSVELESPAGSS
T3 sequence (b2m): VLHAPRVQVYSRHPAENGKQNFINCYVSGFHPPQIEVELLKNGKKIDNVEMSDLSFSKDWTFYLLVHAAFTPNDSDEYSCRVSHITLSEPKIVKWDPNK
Described as above. As for the experimental part: as §1, §2, §3

Experiment [4] concerns the target T2, Soluble pig FcRn with pig …. The experiment can be described thus: SPR, pH 5.5; affinity against PSA on pig FcRn. As for the experimental part: as §1, §2
(§4) The soluble FcRn receptors were synthesized by GeneArt and expressed in HEK cells. […]

Experiment [5] concerns the target T1, Soluble cynomolgus macaque FcRn with …. Nature of the experiment: SPR, pH 5.5; against CSA on cyno FcRn by the values (column head says PSA). As for the experimental part: as §1, §2, §4
Experiment [6] deals with T4, Soluble mouse FcRn, GST-tagged, with human beta2-microglobulin (mouse; Schistosoma japonicum; human, UniProt P08515 = GST).
T4 construct: also called smFcRn
Nature of the experiment: SPR, albumin over immobilized GST-FcRn, pH 6.0, steady state. How it is done:
as §1

The target in experiment [7] is T5, Soluble dog FcRn, GST-tagged, with human beta2-microglobulin (dog; Schistosoma japonicum; human, UniProt P08515 = GST).
T5 construct: also called dFcRn
The experiment can be described thus: SPR, albumin over immobilized GST-FcRn, pH 6.0, 1:1 model. How it is done: as §1

For experiment [8], the target named is T6, Soluble pig FcRn, GST-tagged, with human beta2-microglobulin (Example 2) (pig; Schistosoma japonicum; human, UniProt P08515 = GST).
T6 construct: also called pFcRn; spFcRn
The experiment is described as above. How it is done:
as §1

For experiment [9], the target named is T7, Soluble rhesus monkey FcRn, GST-tagged, with human beta2-microglobulin (rhesus monkey; Schistosoma japonicum; …, UniProt P08515 = GST).
T7 construct: also called srmFcRn; soluble rhesus macaque FcRn
The description is as above. How it is done:
as §1

For experiment [10], the target named is T4, Soluble mouse FcRn, GST-tagged, with …. The experiment is described as above. As for the experimental part:
as §1

B1: HSA E492G+K573P+K574H+Q580K (ligand)
chain: DAHKSEVAHRFKDLGEENFKALVLIAFAQYLQQCPFEDHVKLVNEVTEFAKTCVADESAENCDKSLHTLFGDKLCTVATLRETYGEMADCCAKQEPERNECFLQHKDDNPNLPRLVRPEVDVMCTAFHDNEETFLKKYLYEIARRHPYFYAPELLFFAKRYKAAFTECCQAADKAACLLPKLDELR[skipping about 200 residues]NLIKQNCELFEQLGEYKFQNALLVRYTKKVPQVSTPTLVEVSRNLGKVGSKCCKHPEAKRMPCAEDYLSVVLNQLCVLHEKTPVSDRVTKCCTESLVNRRPCFSALGVDETYVPKEFNAETFTFHADICTLSEKERQIKKQTALVELVKHKPKATKEQLKAVMDDFAAFVEKCCKADDKETCFAEEGPHLVAASKAALGL
notes: Variant of mature HSA
As for B1, the Kd in experiment [1] came to 1000 nM; in experiment [2], 400 nM; in experiment [3], 10.9 µM. The values for the koff in experiment [1], in experiment [2] and in [3] were 0.0055 s⁻¹, 0.0121 s⁻¹ and 0.0628 s⁻¹, respectively. Also, the association rate constant (kon) in experiment [1] came to 4600 M⁻¹ s⁻¹; in experiment [2], 27800 M⁻¹ s⁻¹; in experiment [3] it was 5800 M⁻¹ s⁻¹. In addition, the “Fold > PSA” value in [4] turned out to be 525 fold; in experiment [5], 35 fold.

B2: N-terminally c-myc tagged albumin variant E492G+K573P+K574H+Q580K (ligand)
chain: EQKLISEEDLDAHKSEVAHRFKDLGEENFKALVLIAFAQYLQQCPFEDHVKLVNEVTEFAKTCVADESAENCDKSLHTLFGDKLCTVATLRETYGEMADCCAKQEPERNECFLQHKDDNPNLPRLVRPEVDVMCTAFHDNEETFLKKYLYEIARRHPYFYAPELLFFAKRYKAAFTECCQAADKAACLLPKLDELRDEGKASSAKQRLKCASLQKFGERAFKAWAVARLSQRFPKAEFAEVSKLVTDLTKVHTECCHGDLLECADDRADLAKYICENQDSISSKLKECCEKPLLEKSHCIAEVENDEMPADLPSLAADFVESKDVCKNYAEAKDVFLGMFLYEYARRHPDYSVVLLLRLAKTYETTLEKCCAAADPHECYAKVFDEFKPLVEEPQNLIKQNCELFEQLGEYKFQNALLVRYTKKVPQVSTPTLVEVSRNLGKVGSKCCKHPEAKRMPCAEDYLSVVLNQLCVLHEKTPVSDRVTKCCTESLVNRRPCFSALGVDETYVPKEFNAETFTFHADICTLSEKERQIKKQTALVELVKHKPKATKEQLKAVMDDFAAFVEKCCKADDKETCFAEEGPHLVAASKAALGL
notes: Substitutions numbered on mature HSA, not on the tagged chain; also called c-myc-E492G + K573P + K574H + Q580K
For B2, the Kd came out at 1000 nM in [1], 400 nM in experiment [2] and 13 µM in experiment [3]. Besides, the koff in [1] was found to be 0.0059 s⁻¹; in experiment [2] it was 0.0136 s⁻¹; in experiment [3], 0.0768 s⁻¹. In addition, the kon in experiment [1] was found to be 4900 M⁻¹ s⁻¹; in [2], 34500 M⁻¹ s⁻¹; in [3], 5700 M⁻¹ s⁻¹. The “Fold > PSA” value in [4] is 525 fold; in experiment [5], 35 fold.

B3: Wild type mouse serum albumin (ligand)
chain: not shown
notes: also called MSA; MSA Wt
B3: the Kd in experiment [6] turned out to be 1000 nM; in experiment [7] it was 1750 nM; in experiment [8], 2200 nM; in experiment [9], 1300 nM; in experiment [10], 800 nM. For the same molecule, the off-rate constant (koff) came out at 0.013 s⁻¹ in experiment [7], 0.022 s⁻¹ in [8], 0.0066 s⁻¹ in experiment [9] and 0.0122 s⁻¹ in experiment [10]. The kon in [7] stood at 7400 M⁻¹ s⁻¹; in experiment [8], 10000 M⁻¹ s⁻¹; in experiment [9], 4900 M⁻¹ s⁻¹; in [10], 16100 M⁻¹ s⁻¹.

As usually defined, the Kd is the free concentration of one partner at which half of the binding sites on the other are occupied at equilibrium, for simple one-to-one binding. Usually koff stands for a measure of how fast the partners let go of each other. As a reminder, the kon is a measure of how fast the partners come together.
